Here are results for 48 compounds from PubChem BioAssay AID1508642 (National Center for Advancing Translational Sciences (NCATS), 2021).

Among all 43,000 compounds or so, about 200 (0.47%) were called active. Another 12% or so got no clear call; they are omitted. Calls follow the shape of the dose curve; as a rule, active = well fitted cell-killing curve with a large enough effect; inconclusive = small, poorly fitted or top-dose-only effect, or effect the other way; inactive = flat fitted curve, though single readings scatter. This is one part of the list.
% is scaled to controls: 0 for no effect and ±100 for the full control effect.

The experiment in a line: Cell viability qHTS assay in S16 Pmp22-F2sN cells. Also: nearly all actives have a fitted effect of over 65% in size. As to conditions: S16 Pmp22-F2sN Schwann cells (luciferase reporters placed in the Pmp22 gene) viability, CellTiter-Glo, 24 h; series mostly up to 57.5 µM; activity change, negative = cytotoxicity: at the top concentration. The method, boiled down:
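CellTiter-Glo counter-screen, qHTS, 1536-well. Cells: S16(c9) Pmp22-F2sN, 500-1,000/well in DMEM + 10% FBS. Cpd 23 nL pin transfer, 24 h, 37C/5% CO2. Read: luminescence, CCD imager.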
In general terms: In qHTS, concentration-response curves come from the screen itself.
With `Cc1ccc(C)c(Cn2nnc(C(=O)NCc3ccc(Cl)cc3Cl)c2N)c1`, the “activity change, negative = cytotoxicity” value was inactive: -0.289%. In the case of `Cc1cn(C)c(CC(=O)Nc2cccc(Cl)c2C)c1C(=O)O` it was inactive: 1.31%; in that of `CCCCNS(=O)(=O)c1ccc2nc(NC(=O)c3cccnc3)sc2c1`, inactive: -24.1%. For the compound `Cc1ccc(CNC(=O)c2ccc(CSCc3ccc(Cl)cc3)o2)cc1`, the “activity change, negative = cytotoxicity” value was inactive: 0.166%. `O=C(Nc1cc(C(F)(F)F)ccc1Cl)c1cc2nc(-c3ccc4c(c3)OCO4)cc(C(F)(F)F)n2n1`: the “activity change, negative = cytotoxicity” value was inactive: -4.54%.

With `Cn1c(=O)oc2cc(S(=O)(=O)N3CCCC(C(=O)Nc4ccc(Br)cc4F)C3)ccc21` (stereo not drawn), the “activity change, negative = cytotoxicity” value was inactive: 14.7%. The same measure for `CCOc1ccccc1C(=O)Nc1c(NC)c2ccccc2oc1=O`: inactive: 2.02%; for `O=C(NCc1cccc(F)c1)C1=Cc2cc(Br)ccc2OC1`: inactive: 3.05%; for `Cc1ccc(-n2ccnc(NCc3ccccc3)c2=O)cc1C`: inactive: -11.7%.

With `CCCCN(Cc1ccccc1)C(=O)c1oc(=O)c2ccccc2c1-c1ccc(C)cc1`, the “activity change, negative = cytotoxicity” value was inactive: -18.4%. Take `CCn1c(C(=O)N2CCC(C(=O)NCCc3ccccc3)CC2)cc2sccc21`: the “activity change, negative = cytotoxicity” value was inactive: 4.85%. The same measure for `CCC(Sc1nnc(-c2ccc(OC)cc2)c(-c2ccc(OC)cc2)n1)C(=O)NC1CCCCC1` (stereo not drawn): inactive: 2.68%; for `Cc1ccc(-n2c3nc(=O)n(C)c(=O)c-3cc3c(Cl)cccc32)c(C)c1`: inactive: -2.08%; for `Cc1ccc(NS(=O)(=O)c2ccc(NC(=O)N3CCCC3)cc2)cc1C`: inactive: -1.63%.

As to `COc1cccc(N2CC(NC(=O)/C=C\c3ccc4c(c3)OCO4)CC2=O)c1` (stereo not drawn), the “activity change, negative = cytotoxicity” value is inactive: 5.77%. For the compound `COc1ccc(N2CC(NC(=O)c3ccc(S(=O)(=O)N4CCCC4)cc3)CC2=O)cc1` (stereo not drawn), the “activity change, negative = cytotoxicity” value is inactive: 3.29%. The same measure for `CCOC(=O)c1ccc(NC(=O)C(CC)Sc2nc3ncccc3[nH]2)cc1` (stereo not drawn): inactive: 1.1%; for `COc1ccc(-n2nc(C(=O)N3CCN(c4ccccc4OC)CC3)c3c4ccccc4n(C)c3c2=O)cc1`: inactive: 9.8%; for `COc1cccc(CNC(=O)c2ccc(Cn3c(SCc4ccccc4)nc4cccnc43)cc2)c1`: inactive: -29.3%. The same measure for `COc1cc(Cl)ccc1Nc1ncc(C(=O)N2CCN(c3ccccc3OC)CC2)c2ccccc12`: inactive: 19.7%; for `Cc1ccc(C(=O)N2CCC(c3c[nH]c4ccccc34)(c3c[nH]c4ccccc34)CC2)cc1`: inactive: -2.25%. Turning to `Cn1nccc1C(=O)NCc1ccc2c(c1)CCN2C(=O)c1ccc(F)cc1`, the “activity change, negative = cytotoxicity” value was inactive: 8.14%.

Regarding `COc1cc(NC(=O)CCc2c(C)nc3nc(-c4cc(OC)cc(OC)c4)nn3c2C)cc(OC)c1`, the “activity change, negative = cytotoxicity” value was inactive: 1.83%. In the case of `Cc1nc2ccccc2n1CC(O)COc1ccc(C(=O)O)cc1` (stereo not drawn) it was inactive: -0.0787%; in that of `O=C(CSc1nc(-c2ccccc2)nc2c1CCCC2)c1ccc(F)cc1`, inactive: 12.2%; in that of `CCC(=O)N1c2ccc(S(=O)(=O)NCc3cccc(OC)c3)cc2CC1C` (stereo not drawn), inactive: 5.45%.

As to `Cc1ccc(S(=O)(=O)c2nc(-c3ccco3)oc2SC(C)c2ccccc2)cc1` (stereo not drawn), the “activity change, negative = cytotoxicity” value was inactive: -3.14%. In the case of `Nc1c(-c2nc(-c3ccc(Cl)cc3)no2)nnn1-c1ccc(C(F)(F)F)c(Cl)c1`, the “activity change, negative = cytotoxicity” value was inactive: -0.0859%. The same measure for `COc1cc(NC(=O)c2cc(C3CC3)nc3c2c(C)nn3-c2ccc(C)cc2)cc(OC)c1`: inactive: -9.5%.

`Cc1cccc(C)c1OCc1nc2c3cnn(-c4ccccc4Br)c3ncn2n1`: the “activity change, negative = cytotoxicity” value is inactive: 6.05%. The same measure for `O=C(CSc1nc2c([nH]c3ccccc32)c(=O)n1-c1ccc(F)cc1)N1CCCc2ccccc21`: inactive: 17.8%. For the compound `CCOC(=O)Cn1c(=O)n(C2CCCCC2)c2nc(-c3ccccc3Cl)nc(C(N)=O)c21`, the “activity change, negative = cytotoxicity” value was inactive: 23.1%. The same measure for `CCC(CC)C(=O)Nc1nnc2n1CCS2`: inactive: 1.62%; for `CCOC(=O)CC(NC(=O)c1cc2c(=O)n3cccc(C)c3nc2s1)c1ccc(OCC(C)C)c(OC)c1` (stereo not drawn): inactive: 1.43%; for `COc1ccc(CCN2C(=O)c3[nH]nc(-c4ccccc4O)c3C2c2ccc(O)c(OC)c2)cc1` (stereo not drawn): inactive: -20.3%. In the case of `COc1ccc(-c2c(C)nn3c(-c4ccccc4)cc(-c4ccccc4)nc23)cc1OC` it was inactive: 3.11%; in that of `O=C(NC1CCCCC1)c1cc(Nc2ccccc2)nc2ccccc12`, inactive: 3.12%; in that of `COC(=O)c1ccc(NC(=O)CCNS(=O)(=O)c2cccc3nsnc23)cc1`, inactive: -1.01%.

Regarding `O=C(Cn1c(=O)n(-c2ccccc2)c(=O)c2c3c(sc21)CCCC3)Nc1cccc(F)c1`, the “activity change, negative = cytotoxicity” value is inactive: 18.4%. The same measure for `COc1cccc(Cc2nc3ccccc3nc2SCC(=O)Nc2ccccc2F)c1`: inactive: -19.4%; for `CN(C)c1ccc(CNC(=O)c2ccc(NC(=O)c3nsc4ccccc34)cc2)cc1`: inactive: 3.55%.

Take `CC(C)C1N=C2c3ccccc3N=C(SCC(=O)NCc3ccc(F)cc3)N2C1=O` (stereo not drawn): the “activity change, negative = cytotoxicity” value was inactive: 3.46%.

As for `Cc1cccc(NC(=O)Cn2c(=O)n(CCc3ccccc3)c(=O)c3sc4ccccc4c32)c1`, the “activity change, negative = cytotoxicity” value was inactive: -0.0906%. As to `CCC12CN3CC(C)(CN(C1)C3c1c(C)n(C)c3ccccc13)C2=O` (stereo not drawn), the “activity change, negative = cytotoxicity” value was inactive: -1.02%. Regarding `Cc1cccc(CNC(=O)c2ccc3nc(-c4ccccc4)c(-c4ccccc4)nc3c2)c1`, the “activity change, negative = cytotoxicity” value was inactive: 16.1%. For `Cc1c(C(=O)NCc2ccccc2Cl)cccc1-n1cnc2cccnc21`, the “activity change, negative = cytotoxicity” value was inactive: -0.816%. The same measure for `CCN(CC)S(=O)(=O)c1nnc(NC(=O)COc2cccc(C)c2)s1`: inactive: 2.61%. The same measure for `Cn1cnc(S(=O)(=O)N2CCCC(C(=O)Nc3cccc(C#N)c3)C2)c1` (stereo not drawn): inactive: 18.7%.
